# Assay results reported in PubChem BioAssay AID504832 (National Center for Advancing Translational Sciences (NCATS), 2011).
# In all, about 310,000 compounds went through this assay and about 18,000 (5.8%) were called active. Inconclusive means that the source gave no clear call. Such entries were picked first, then a sample of the others. The call rests on the fitted dose curve; in most records, active means well fitted inhibition curve with a large enough effect; inconclusive means small, poorly fitted or top-dose-only effect, or another doubt; inactive means no such curve, though single readings can be large or run the other way. Potencies of inconclusive entries are left out as doubtful fits.
# Experiment: Primary qHTS for delayed death inhibitors of the malarial parasite plastid, 48 hour incubation
# Conditions: P. falciparum luciferase growth in erythrocytes; series mostly up to 28.7 µM
# Summary of the method: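 Luminescence readout; reporter = integrated firefly luciferase in P. falciparum. RBC culture at 2% hematocrit, 0.1% parasitemia final, 37 C/5% CO2; decreased signal taken as growth inhibition.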
# Potency means the concentration at half of the fitted maximal effect; tags describe the fitted curve by direction and shape.
row,Compound,Potency
1,COc1cc(C(=O)N(CCN(C)C)CC2CCCN(Cc3ccccc3F)C2)ccc1C (stereo not drawn),active: 10.4 µM
2,Cc1ccc(C(=O)N/C(=C/c2ccco2)C(=O)NCC2CCCO2)cc1 (stereo not drawn),inactive
3,O=C(NCc1ccccn1)c1cccn1-c1ncc(C(F)(F)F)cc1Cl,"inconclusive [inhibitor, single point]"
4,COc1ccc(OC)c(-c2cc(C(=O)Nc3c(C)nn(Cc4ccccc4)c3C)no2)c1,active: 13.1 µM
5,O=C(CCc1ccccc1)NC1(Cc2ccccc2)CCN(CCCc2ccccc2)C1=O (stereo not drawn),"inconclusive [inhibitor, single point]"
6,O=C(Nc1ccc(F)c(F)c1)c1ccc(-n2cncn2)c([N+](=O)[O-])c1,"inconclusive [inhibitor, single point]"
7,COc1ccc(-c2ccc(C(C)=O)cc2)cc1[C@H]1[C@@H]2C=CCC[C@@]2(C)C(=O)N1Cc1ccccc1,"inconclusive [inhibitor, partial curve, poor fit]"
8,OCC[C@H]1C[C@H](O)[C@@H](O)[C@]2(Cc3ccccc3O2)O1,"inconclusive [inhibitor, single point]"
9,CC#CCN(Cc1ccco1)C(=O)c1ccc(OC2CCN(Cc3ccccn3)CC2)cc1,"inconclusive [inhibitor, single point]"
10,COc1ccc(-c2cc(-c3ccc(C)cc3)nc(SCc3nnc(-c4ccccc4)o3)c2C#N)cc1OC,"inconclusive [inhibitor, full curve]"
11,CC1CC(C)CN(S(=O)(=O)c2ccc(C(=O)Nc3sccc3C(N)=O)cc2)C1 (stereo not drawn),"inconclusive [inhibitor, single point]"
12,COc1ccc(S(=O)(=O)N2CCOCC2)cc1NC(=O)c1cc(=O)[nH]c2ccccc12,inactive
13,CCOc1ccc2c(c1)C(c1ccc(C)cc1)=NNC(c1ccc(C)cc1)=N2,"inconclusive [inhibitor, single point]"
14,COc1ccc(CC(=O)N/N=C/c2cccs2)cc1OC,"inconclusive [inhibitor, partial curve, poor fit]"
15,CCOC(=O)N1CCC(NC(=O)c2ccc3c(c2)N(Cc2ccc(C)cc2)CCS3)CC1,"inconclusive [inhibitor, single point]"
16,COc1ccccc1CNC(=O)CSc1nc(=O)n(Cc2ccncc2)c2c1CCC2,active: 11.7 µM
17,CCCCn1c(N)c(N(CCOC)C(=O)c2cc(C)oc2C)c(=O)[nH]c1=O,inactive
18,O=C1/C(=C/c2ccccc2F)SC(=S)N1CCC(=O)N1CCCCC1CCO (stereo not drawn),"inconclusive [inhibitor, full curve]"
19,COc1cc2[nH]cc(C(=O)NCc3ccccc3)c(=O)c2cc1OC,"inconclusive [inhibitor, single point]"
20,CCCn1c(=N)c(C(=O)NC2CCCC2)cc2c(=O)n3cccc(C)c3nc21,active: 1.85 µM
21,Cc1cccc(NC(=O)CNC(=O)COc2cc(F)ccc2[N+](=O)[O-])c1C,"inconclusive [inhibitor, single point]"
22,CCOC(=O)C1=C(N)n2c(s/c(=C/c3ccccc3)c2=O)=C(C(=O)OCC)C1c1ccccc1 (stereo not drawn),"inconclusive [inhibitor, single point]"

row,Compound,Potency
1,C[C@@H]1CC[C@H]2[C@@H](C)C(=O)O[C@@H]3OC4(C)CC[C@@H]1C32OO4 (stereo partly drawn),active: 0.0034 µM
2,Cc1nn(C)c(C)c1NS(=O)(=O)c1ccccc1Cl,inactive
3,CCCNC(=O)C1CC(c2ccccc2C(F)(F)F)=NO1 (stereo not drawn),"inconclusive [inhibitor, single point]"
4,COCCNC(=O)c1cc2sc3ccccc3c2s1,inactive
5,CC(C)=C1SC(N2CCN(c3cccc(C(F)(F)F)c3)CC2)=NC1=O,"inconclusive [inhibitor, partial curve, poor fit]"
6,CCN(CC)S(=O)(=O)c1ccc(NC(=O)COC(=O)CNS(=O)(=O)/C=C/c2ccccc2)cc1,inactive
7,COC(=O)c1sc(N2C(=O)C(O)=C(C(=O)c3ccc(C)o3)C2c2cccs2)nc1C (stereo not drawn),"inconclusive [inhibitor, single point]"
8,Cc1cc(C)cc(NC(=O)C2CCCN(c3ncccn3)C2)c1 (stereo not drawn),inactive
9,COc1cc(C(=O)Nc2ccccc2C2COC(=O)C2=N)cc(OC)c1OC (stereo not drawn),inactive
10,COc1cc2c3nnc(-c4ccc(F)cc4)c-3cn(Cc3ccccc3F)c2cc1OC,active: 0.37 µM
11,C=CCN(c1ccc(C(=O)Nc2ccc3c(c2)OCO3)cc1)S(C)(=O)=O,"inconclusive [inhibitor, full curve, poor fit]"
12,O=C(Nc1cccc(C(F)(F)F)c1)c1cc(Br)cc(Br)c1O,"inconclusive [inhibitor, single point]"
13,Cc1[nH]n(-c2ccccc2)c(=O)c1N=Nc1ccccc1O,"inconclusive [inhibitor, full curve]"
14,CC1CCCCN1CCCOC(=O)c1ccccc1 (stereo not drawn),inactive
15,CC(C)(C)NC(=O)C(c1ccncc1)N(C(=O)C1CSC(=O)C1)c1ccccc1 (stereo not drawn),inactive
16,Cc1ccc(C23CC4CC(CC(CC(=O)N5CCOCC5)(C4)C2)C3)cc1,"inconclusive [inhibitor, partial curve, poor fit]"
17,Cc1nnc(N(C)C(=O)c2ccc3c(c2)OCO3)s1,inactive
18,CC(C)CC(C(=O)NCC1CCCO1)N(C(=O)Cn1nnc(-c2ccc(F)cc2)n1)c1cccc(C(F)(F)F)c1 (stereo not drawn),"inconclusive [inhibitor, full curve, poor fit]"
19,O=[N+]([O-])c1ccc(-c2nn(-c3ccccc3)cc2/C=N/n2c(-c3cccs3)n[nH]c2=S)cc1,"inconclusive [inhibitor, single point]"
20,O=C(NCCN1CCOCC1)C1CC(=O)N(c2cccc(C(F)(F)F)c2)C1 (stereo not drawn),"inconclusive [inhibitor, partial curve]"
21,Cc1ccc(S(=O)(=O)N(CC(=O)Nc2cccc([N+](=O)[O-])c2)C2CCCCC2)cc1,"inconclusive [inhibitor, full curve, poor fit]"
